Values joined by “and” are separate entries in the source; they are usually repeats but may differ in a detail not shown here. Equal entries are not always repeated. Structures can show the parent of a compound that is named as a salt.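 Step 1: Grow cells in 96-well plates. Step 2: Expose to compound for 48 hours at 5 concentrations. Step 3: Interpolate endpoints linearly; if unreached, use highest concentration. GI50 marks 50% less growth.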 Active and inactive are the calls of the source. No stated cut-off is given here; in the data, active = GI50 up to about 1.1 µM and inactive = higher.
system: NCI-H322M; test: NCI anticancer screen, dose series, 48 h

Row | Compound | GI50
1 | CC(=O)O[C@H](C[C@@H](C)[C@H]1C(=O)[C@H](O)[C@@]2(C)C3CC[C@H]4C(C)(C)[C@@H](OC5OCC(O)C(O)C5O)CC[C@@]45C[C@@]35CC[C@]12C)[C@@H]1OC1(C)C (stereo not given in full) | inactive: 19.6 µM
2 | Cc1ccc(NC(=S)C#N)cc1Cl | inactive: 38 µM
3 | COc1ccc(/C=C2\N=C(SC)N(CN3CCCCC3)C2=O)cc1 | inactive: > 100 µM
4 | Clc1ccccc1/C=C\C1(c2ccccc2)OCCO1 | inactive: 28.8 µM
5 | CC(C)c1cccc(C(C)C)c1NC(=O)/C(Cc1nc2ccc(Cl)cc2nc1O)=N\NC(=O)C[N+](C)(C)C | inactive: > 100 µM
6 | Cc1cc2c(cc1C)[n+]([O-])c(C(=O)CC(=O)C(=O)Nc1ccccc1C)c(C)[n+]2[O-] | inactive: > 100 µM
7 | CC(=O)Nc1ccc2c(C(=O)O)c(C)c(O)nc2n1 | inactive: > 100 µM
8 | COc1cccc2c1-c1ccccc1[C@H](Nc1ccccc1)[C@@]2(C)O | inactive: 6.41 µM
9 | O=C(Nc1nc(C23CC4CC(CC(C4)C2)C3)cs1)c1c(O)c2ccccc2[nH]c1=O | inactive: > 100 µM
10 | C[C@@]1(CCCCCCCCCCc2ccccc2)C[C@@]2(C)OC(=O)C[C@H]2OO1 | inactive: 2.47 µM
11 | CN1CCCC(OC(=O)c2cc3cc(CCl)ccc3oc2=O)C1 (stereo not given) | inactive: 17.9 µM
12 | Cn1c2ccccc2c(=NNc2ccc(S(=O)(=O)N=C(N)N)cc2)c2ccccc21 | inactive: 5.35 µM
13 | CC1(C)OC(COP2OCCO2)[C@H](COP2OCCO2)O1 (stereo not given in full) | inactive: > 100 µM
14 | CC(C)NC(=O)OCc1nnn2c1C(OC(=O)NC(C)C)CC2 (stereo not given) | inactive: > 100 µM
15 | CCCCCC(=O)Nc1[nH]nnc1C#N | inactive: > 100 µM
16 | CN(Cc1cnc2nc(N)nc(N)c2n1)c1ccc(C(=O)NC(CCC(=O)O)C(=O)O)c2ccccc12 (stereo not given) | active: 0.01 µM
17 | Cn1c(=O)c2nc(NCCO)cnc2n(C)c1=O | inactive: > 100 µM
18 | N/C(=N\N/C=C1\C=Nc2cc(C(F)(F)F)ccc2C1=O)NO | inactive: 4.66 µM
19 | Cc1n[nH]c(=O)n1C1CCCC1 | inactive: > 100 µM
20 | COc1cc2nc(N3CCN(C(=O)c4ccco4)CC3)nc(N)c2cc1OC [PRAZOSIN HYDROCHLORIDE] | inactive: 18.4 µM
21 | CC[N+](CC)(CCNCC(N)=O)CC(N)=O | inactive: > 10 µM
22 | C=C(C(=O)O)[C@@H]1C[C@@H]2O[C@H]1[C@@H](O)[C@@H](C)CCCC(C)=CCC[C@@]2(C)O | inactive: > 100 µM
23 | O=C1c2ccccc2C(=O)c2c1ccc(C(=O)O)c2-c1ccc2ccccc2c1 | inactive: 27.7 µM
24 | COc1ccc2oc3c(ccc[n+]3C)c(=O)c2c1 | inactive: > 100 µM

Row | Compound | GI50
25 | COc1cc(Cl)cc(O)c(=O)c1OC | inactive: 45 µM
26 | O=CC1C[C@@H](N2C(=O)O[C@@H](c3ccccc3)[C@H]2c2ccccc2)[C@@H]1COCc1ccccc1 (stereo not given in full) | inactive: 19.5 µM
27 | COC1OC(CO)C(O)C1N (stereo not given) | inactive: > 100 µM
28 | Cc1c(F)c(N)c2c(=O)cc(-c3ccc(NC(=O)CN(C)C)c(F)c3)oc2c1F | inactive: > 100 µM
29 | CCOC(=O)c1csc(NC(=O)CN2CCCC2)n1 | inactive: > 100 µM
30 | O=C(O)c1cc(Cl)cc(Cc2cc(Cl)cc(C(=O)O)c2O)c1O | inactive: > 100 µM
31 | O=C1/C(=C/c2ccc(Cl)cc2)N=C(c2ccccc2)N1c1nc2ccccc2s1 | inactive: > 100 µM
32 | CCOC(=O)C1=CC(C)(C(=O)OCC)Nc2c(nc(SC)[nH]c2=O)N1 (stereo not given) | inactive: > 10 µM
33 | CC(=O)Oc1ccc(/C=C/C(=O)NCCOC(=O)/C=C/c2ccc(OC(C)=O)c(OC(C)=O)c2)cc1OC(C)=O | inactive: 29.9 µM
34 | CC(=O)OCc1nnn2c1C(OC(C)=O)CC2 (stereo not given) | inactive: > 100 µM
35 | CC(C)(O)/C=C/C(=O)[C@](C)(O)[C@H]1[C@H](O)C[C@@]2(C)[C@@H]3CC=C4[C@@H](C=C(O)C(=O)C4(C)C)[C@]3(C)C(=O)C[C@]12C [CUCURBITACIN I] | inactive: 4.22 µM and inactive: 3.94 µM
36 | O=C(O)c1cc(C(=O)O)nc(C(=O)O)c1 | inactive: > 100 µM
37 | O=C1c2ccncc2C(=O)c2c(O)ccc(O)c21 | inactive: 28.4 µM
38 | Brc1ccc2c(-c3nc(-c4c[nH]c5ccc(Br)cc45)cs3)c[nH]c2c1 | inactive: 4.13 µM
39 | CC(=O)N[C@@H](Cc1ccc(O)cn1)C(=O)NCc1cccc(F)c1 | inactive: > 100 µM
40 | CN(C)CCSc1nccc(-c2ccc(-c3ccnc(SCCN(C)C)n3)s2)n1 | inactive: 8.15 µM
41 | CC(=O)NNc1nc(C)c(C(=O)NNC(=O)C(=O)Nc2ccc([N+](=O)[O-])cc2[N+](=O)[O-])s1 | inactive: > 100 µM
42 | CC#CC#C/C=C1/C=CC2(CCCCO2)O1 (stereo not given) | inactive: > 100 µM
43 | CC(C)(C)/N=C\N1CCC(C(c2ccccc2)c2ccccc2)CC1 | inactive: 85.1 µM
44 | c1ccc2c(c1)nc1n2CCSC1 | inactive: > 100 µM
45 | CN(C)Cc1cc(C(=O)/C=C/c2ccc(O)cc2)cc(CN(C)C)c1O | inactive: 35.8 µM
46 | CCOP(=O)(O)C(C)(C)NC | inactive: > 100 µM
47 | CC(=O)NC(CCCNC(=O)OCc1ccccc1)C(=O)O (stereo not given) | inactive: > 100 µM
48 | COC(=N)C(C)C | inactive: > 100 µM

Row | Compound | GI50
49 | Cn1c(=O)c2c(nc(-n3nc(-c4ccc(Cl)cc4)cc3N)n2C)n(C)c1=O | inactive: 32.2 µM
50 | COc1cc(COC(=O)N2CCC2C(=O)O)c([N+](=O)[O-])cc1OC (stereo not given) | inactive: > 100 µM
51 | CCc1c(Cl)nc(Cl)nc1Cl | active: 1.11 µM
52 | CCC(C)C(=O)OCC(=O)c1ccc(-c2ccccc2)cc1 (stereo not given) | inactive: 48.1 µM
53 | CC(C)S(=O)(=O)ON1C(=O)c2ccc([N+](=O)[O-])cc2C1=O | inactive: > 100 µM
54 | Cc1nc2c(n1CCCl)C(=O)c1ccccc1C2=O | inactive: 35.9 µM
55 | Cc1cc2c(cc1C(=O)CCC(=O)O)CC1(C2)Cc2cc(C)c(C(=O)CCC(=O)O)cc2C1 | inactive: > 100 µM
56 | C=C(C)[C@@H]1CC[C@@H]2C(=CC[C@]3(C)C([C@H](C)CC/C=C(/C)C(=O)O)CC[C@@]23C)[C@@]1(C)CCC(=O)O (stereo not given in full) | inactive: 26.4 µM
57 | CN(C)P(=O)(Oc1occc1C(O)Cc1ccccc1)N(C)C (stereo not given) | inactive: > 100 µM
58 | COc1nc2c(c(=O)n1C)N[C@@H]1[C@@H](O)[C@H](O)CO[C@@H]1N2 | inactive: > 100 µM
59 | COc1ccc(NC2Oc3cc4c(cc3C(c3cccc(OC)c3OC)C2C)OCO4)cc1 (stereo not given) | inactive: 19.1 µM
60 | Cc1cc(S(=O)(=O)Nc2nc3ccccc3n2-c2ccccc2)c(S)cc1Cl | inactive: 67.9 µM
61 | CN(Cc1cnc2nc(N)nc(N)c2n1)c1ccc(C(=O)NC2CCCCC2)cc1 | inactive: 32.7 µM
62 | Fc1ccc(/N=N/N2CCCC2)cc1 | inactive: > 100 µM
63 | CN1N=C(c2ccncc2)OC1c1ccc(Cl)cc1Cl (stereo not given) | inactive: > 100 µM
64 | OCC1=CC(NC2CC(CO)C(O)C(O)C2O)C(O)C(O)C1O (stereo not given) | inactive: > 100 µM
65 | c1ccc(C2SCC3=Nc4ccccc4CN32)cc1 (stereo not given) | inactive: 24.3 µM
66 | COc1cc2c(cc1OC)C1Cc3ccccc3CN1CCC2 (stereo not given) | inactive: > 100 µM
67 | Fc1cc(C2=C[C@H](c3ccc4c(c3)OCO4)NC(=S)N2)c(Cl)cc1Cl | inactive: 42.3 µM
68 | CCOC(=O)c1ccc(NC(=O)O/N=C(/Cl)CC)cc1 | inactive: 16.6 µM
69 | COc1ccc(C(=O)C(C(=O)CCC(=O)Nc2cccc(C(F)(F)F)c2)c2ccccc2)cc1 (stereo not given) | inactive: > 100 µM
70 | O=c1[nH]/c(=C/c2cccs2)c(=O)[nH]/c1=C/c1ccc(OCc2ccccc2)cn1 | active: 0.0871 µM
71 | COC1=C(OC)CCC(/C(C#N)=C/c2ccc(OC)c(OC)c2)=C1 | inactive: > 100 µM
72 | NC(=S)N/N=C1/C(=O)N(c2ccccc2)C(=O)C1C(=O)Nc1ccccc1 (stereo not given) | inactive: > 100 µM

Row | Compound | GI50
73 | CC(C)OC(=O)c1ccc(CCc2cc(O)c(Br)cc2O)cc1 | inactive: 23.2 µM
74 | O=[N+]([O-])/C=C/c1ccc(Cl)cc1Cl | inactive: 16.4 µM
75 | CC(SC1=CC(=O)c2c(Cl)ccc(O)c2C1=O)C(=O)O (stereo not given) | inactive: 17.4 µM
76 | O=C(NCCc1ccccc1)c1c(O)nc2ccccc2c1O | inactive: > 100 µM
77 | C/C(=C1\N=C(c2ccccc2)OC1=O)c1ccccc1 | inactive: > 100 µM
78 | CNC(=S)NN=C1NCCCN1 | inactive: > 100 µM
79 | CCOC1CCN(C(=O)c2ccccc2)O1 (stereo not given) | inactive: > 10 µM
80 | C=CCCCC1CCCNC1=O (stereo not given) | inactive: > 100 µM
81 | COc1cc(/C=C2\NC(=O)N(/C=C3\C(=O)Oc4ccccc4C3=O)C2=O)ccc1O | inactive: > 100 µM
82 | CSc1nc2c(c(=O)n1C)N=C(c1ccccc1)[C@H](C(CC(=O)c1ccccc1)c1ccccc1)C(c1ccccc1)N2 (stereo not given in full) | inactive: > 100 µM
83 | O=S(=O)(c1ccccc1)N1CCC1c1ccccc1 (stereo not given) | inactive: > 100 µM
84 | COC(=O)/C=C\C1C(C(=O)OC)C2(C(=O)OC)CCC1(C(=O)OC)N2 (stereo not given) | inactive: 16.7 µM
85 | CCOC(=O)c1c(C)n(CCN2CCN(C)CC2)c2ccc(OC)cc12 | inactive: 55.6 µM
86 | N#C/C(N)=C(C#N)/N=C/Nc1ccccc1N | inactive: > 100 µM
87 | CCOC(=O)CC(=O)Nc1c(C(=O)OCC)sc2nc(SC)nc(Nc3ccc(OC)c(OC)c3)c12 | active: 0.0791 µM
88 | CC1(CC(=O)O)OC2CCCCCC2O1.NCc1ccccc1 (stereo not given) | inactive: 50.8 µM
89 | N=C(N)NS(=O)(=O)c1ccc(NCc2cccc3c(=O)c4ccc(Cl)cc4oc23)cc1 | inactive: > 20.9 µM
90 | Nc1ccc(Nc2c3ccccc3nc3ccccc23)cc1 | inactive: 6.5 µM
91 | CC(C)=C[C@@H]1O[C@H](O)[C@@H]([C@H]2CC[C@@]3(C)[C@@H]4CC[C@H]5C(C)(C)C(=O)CC[C@@]56C[C@@]46CC[C@]23C)[C@@H]1O | inactive: 18 µM
92 | COc1cccc(C2CC(C)(N3CCCC3)Oc3cc4c(cc32)OCO4)c1O (stereo not given) | inactive: 40.2 µM
93 | C=C1C[C@H](O)[C@H](Br)C(C)(C)C12CCC(C)(Cl)C(Br)C2 (stereo not given in full) | inactive: 1.28 µM
94 | Cc1nc2c(=S)[nH]ncc2[nH]1 | inactive: > 100 µM
95 | CC#CC1C(OC(=O)c2ccccc2)CCCC1(CI)N=[N+]=[N-] (stereo not given) | inactive: > 100 µM
